T1: high-affinity hIL-2 receptor (IL-2Rαβγ) on NK-92 cells (human, UniProt P01589 22-272; P14784 27-551; P31785 23-369)
T1 sequence 1: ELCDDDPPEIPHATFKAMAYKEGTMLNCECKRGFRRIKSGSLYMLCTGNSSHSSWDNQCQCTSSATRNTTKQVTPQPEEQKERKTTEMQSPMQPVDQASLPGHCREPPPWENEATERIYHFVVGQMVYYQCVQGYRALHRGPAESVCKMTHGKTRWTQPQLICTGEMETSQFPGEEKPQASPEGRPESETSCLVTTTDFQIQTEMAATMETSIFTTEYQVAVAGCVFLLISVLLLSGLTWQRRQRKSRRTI
T1 sequence 2: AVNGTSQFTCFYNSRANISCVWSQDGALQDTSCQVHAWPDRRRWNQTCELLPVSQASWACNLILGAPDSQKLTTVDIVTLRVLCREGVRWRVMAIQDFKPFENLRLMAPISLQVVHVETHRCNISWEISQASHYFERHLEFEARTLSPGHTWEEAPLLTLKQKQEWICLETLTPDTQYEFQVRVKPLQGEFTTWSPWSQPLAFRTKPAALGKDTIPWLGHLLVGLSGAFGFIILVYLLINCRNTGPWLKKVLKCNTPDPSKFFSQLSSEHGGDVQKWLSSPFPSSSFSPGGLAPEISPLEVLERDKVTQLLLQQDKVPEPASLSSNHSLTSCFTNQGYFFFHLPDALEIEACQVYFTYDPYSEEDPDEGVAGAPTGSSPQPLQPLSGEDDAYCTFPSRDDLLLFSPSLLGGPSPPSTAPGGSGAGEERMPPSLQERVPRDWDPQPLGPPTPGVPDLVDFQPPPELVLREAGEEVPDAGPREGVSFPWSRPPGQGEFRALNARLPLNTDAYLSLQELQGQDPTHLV
T1 sequence 3: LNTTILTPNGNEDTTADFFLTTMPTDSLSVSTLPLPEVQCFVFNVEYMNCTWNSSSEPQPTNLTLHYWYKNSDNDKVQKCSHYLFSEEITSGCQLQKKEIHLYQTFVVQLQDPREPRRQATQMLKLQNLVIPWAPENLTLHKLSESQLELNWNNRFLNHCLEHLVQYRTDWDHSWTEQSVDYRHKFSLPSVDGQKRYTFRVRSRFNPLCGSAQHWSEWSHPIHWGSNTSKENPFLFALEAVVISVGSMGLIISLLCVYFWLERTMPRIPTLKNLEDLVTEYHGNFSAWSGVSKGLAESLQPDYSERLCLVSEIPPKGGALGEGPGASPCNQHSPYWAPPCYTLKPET

T2: intermediate affinity hIL-2 receptor complex (IL-2Rβγ) on TF1+IL-2Rβ cells (human, UniProt P14784 27-551; P31785 23-369)
T2 sequence 1: T1 sequence 2
T2 sequence 2: T1 sequence 3

T3: high-affinity hIL-2 receptor (IL-2Rαβγ) (human, UniProt P01589 22-272; P14784 27-551; P31785 23-369)
T3 sequence 1: T1 sequence 1
T3 sequence 2: T1 sequence 2
T3 sequence 3: T1 sequence 3

T4: intermediate affinity hIL-2 receptor complex (IL-2Rβγ) (human, UniProt P14784 27-551; P31785 23-369)
T4 sequence 1: T1 sequence 2
T4 sequence 2: T1 sequence 3

B1: 1H3-hIgG1-L6-hCD25(1-164)-L20-hIL-2 (N88I) (other)
heavy: EVQLVESGGGLVQPGRSLKLSCAVSGFTFSDYAMAWVRQAPKKGLEWVATISYDGSRTYYRDSVKGRFTISRDNAKITLYLQMDSLRSEDTATYYCARHGSGYFDYWGQGVMVTVSS[not shown - human IgG1 constant region]SGGGGSELCDDDPPEIPHATFKAMAYKEGTMLNCECKRGFRRIKSGSLYMLCTGNSSHSSWDNQCQCTSSATRNTTKQVTPQPEEQKERKTTEMQSPMQPVDQASLPGHCREPPPWENEATERIYHFVVGQMVYYQCVQGYRALHRGPAESVCKMTHGKTRWTQPQLICTSGGGGSGGGGSGGGGSGGGS[not shown - about 150 residues]
light: DTVLTQSPALAVSPGERVTISCRASESVRTGVHWYQQKPGQQPKLLIYGASNLESGVPARFSGSGSGTDFTLTIDPVEADDTATYFCQQSWNDPFTFGSGTKLEIKRTVAAPSVFIFPPSDEQLKSGTASVVCLLNNFYPREAKVQWKVDNALQSGNSQESVTEQDSKDSTYSLSSTLTLSKADYEKHKVYACEVTHQGLSSPVTKSFNRGEC
B2: 1H3-hIgG1-L6-hCD25(1-164)-L20-hIL-2 (D20F) (other)
heavy: EVQLVESGGGLVQPGRSLKLSCAVSGFTFSDYAMAWVRQAPKKGLEWVATISYDGSRTYYRDSVKGRFTISRDNAKITLYLQMDSLRSEDTATYYCARHGSGYFDYWGQGVMVTVSS[not shown - human IgG1 constant region]SGGGGSELCDDDPPEIPHATFKAMAYKEGTMLNCECKRGFRRIKSGSLYMLCTGNSSHSSWDNQCQCTSSATRNTTKQVTPQPEEQKERKTTEMQSPMQPVDQASLPGHCREPPPWENEATERIYHFVVGQMVYYQCVQGYRALHRGPAESVCKMTHGKTRWTQPQLICTSGGGGSGGGGSGGGGSGGGS[not shown - about 150 residues]
light: B1 light
B3: 1H3-hIgG1-L6-hCD25(1-164)-L20-hIL-2 (N88R) (other)
heavy: EVQLVESGGGLVQPGRSLKLSCAVSGFTFSDYAMAWVRQAPKKGLEWVATISYDGSRTYYRDSVKGRFTISRDNAKITLYLQMDSLRSEDTATYYCARHGSGYFDYWGQGVMVTVSS[not shown - human IgG1 constant region]SGGGGSELCDDDPPEIPHATFKAMAYKEGTMLNCECKRGFRRIKSGSLYMLCTGNSSHSSWDNQCQCTSSATRNTTKQVTPQPEEQKERKTTEMQSPMQPVDQASLPGHCREPPPWENEATERIYHFVVGQMVYYQCVQGYRALHRGPAESVCKMTHGKTRWTQPQLICTSGGGGSGGGGSGGGGSGGGS[not shown - about 150 residues]
light: B1 light
B4: 1H3-hIgG1-L6-hCD25(1-164)-L20-hIL-2 (D20R) (other)
heavy: EVQLVESGGGLVQPGRSLKLSCAVSGFTFSDYAMAWVRQAPKKGLEWVATISYDGSRTYYRDSVKGRFTISRDNAKITLYLQMDSLRSEDTATYYCARHGSGYFDYWGQGVMVTVSS[not shown - human IgG1 constant region]SGGGGSELCDDDPPEIPHATFKAMAYKEGTMLNCECKRGFRRIKSGSLYMLCTGNSSHSSWDNQCQCTSSATRNTTKQVTPQPEEQKERKTTEMQSPMQPVDQASLPGHCREPPPWENEATERIYHFVVGQMVYYQCVQGYRALHRGPAESVCKMTHGKTRWTQPQLICTSGGGGSGGGGSGGGGSGGGS[not shown - about 150 residues]
light: B1 light
B5: 1H3-hIgG1-L6-hCD25(1-164)-L20-hIL-2 (N88R) (other)
heavy: EVQLVESGGGLVQPGRSLKLSCAVSGFTFSDYAMAWVRQAPKKGLEWVATISYDGSRTYYRDSVKGRFTISRDNAKITLYLQMDSLRSEDTATYYCARHGSGYFDYWGQGVMVTVSS[not shown - human IgG1 constant region]SGGGGSELCDDDPPEIPHATFKAMAYKEGTMLNCECKRGFRRIKSGSLYMLCTGNSSHSSWDNQCQCTSSATRNTTKQVTPQPEEQKERKTTEMQSPMQPVDQASLPGHCREPPPWENEATERIYHFVVGQMVYYQCVQGYRALHRGPAESVCKMTHGKTRWTQPQLICTSGGGGSGGGGSGGGGSGGGS[not shown - about 150 residues]
light: B1 light
B6: 1H3-hIgG1-L6-hCD25(1-164)-L20-hIL-2 (I92A) (other)
heavy: EVQLVESGGGLVQPGRSLKLSCAVSGFTFSDYAMAWVRQAPKKGLEWVATISYDGSRTYYRDSVKGRFTISRDNAKITLYLQMDSLRSEDTATYYCARHGSGYFDYWGQGVMVTVSS[not shown - human IgG1 constant region]SGGGGSELCDDDPPEIPHATFKAMAYKEGTMLNCECKRGFRRIKSGSLYMLCTGNSSHSSWDNQCQCTSSATRNTTKQVTPQPEEQKERKTTEMQSPMQPVDQASLPGHCREPPPWENEATERIYHFVVGQMVYYQCVQGYRALHRGPAESVCKMTHGKTRWTQPQLICTSGGGGSGGGGSGGGGSGGGS[not shown - about 150 residues]
light: B1 light
B7: 1H3-hIgG1-L6-hCD25(1-164)-L20-hIL-2 (N88I) (other)
heavy: EVQLVESGGGLVQPGRSLKLSCAVSGFTFSDYAMAWVRQAPKKGLEWVATISYDGSRTYYRDSVKGRFTISRDNAKITLYLQMDSLRSEDTATYYCARHGSGYFDYWGQGVMVTVSS[not shown - human IgG1 constant region]SGGGGSELCDDDPPEIPHATFKAMAYKEGTMLNCECKRGFRRIKSGSLYMLCTGNSSHSSWDNQCQCTSSATRNTTKQVTPQPEEQKERKTTEMQSPMQPVDQASLPGHCREPPPWENEATERIYHFVVGQMVYYQCVQGYRALHRGPAESVCKMTHGKTRWTQPQLICTSGGGGSGGGGSGGGGSGGGS[not shown - about 150 residues]
light: B1 light

These binders were tested against T1, high-affinity hIL-2 receptor (IL-2Rαβγ) … (assay: cell-based or functional assay).

| Fold change from hIL-2 (NK-92) | Binder |
| --- | --- |
| 25 fold | B1 |
| 23 fold | B2 |
| 24 fold | B3 |
| 23 fold | B4 |

These binders were tested against T2, intermediate affinity hIL-2 receptor … (assay: cell-based or functional assay).

| Fold change from hIL-2 (TF1 + IL-2Rβ) | Binder |
| --- | --- |
| 20 fold | B1 |
| 18 fold | B2 |
| 17 fold | B3 |
| 16 fold | B4 |

Each binder was assayed against T3, high-affinity hIL-2 receptor (IL-2Rαβγ) (assay: cell-based or functional assay).

| Fold change from rhIL-2 (NK-92), pSTAT5 titration | Binder |
| --- | --- |
| 274 fold | B5 |
| 26 fold | B6 |
| 7780 fold | B7 |

Each binder was assayed against T4, intermediate affinity hIL-2 receptor … (assay: cell-based or functional assay).

| Fold change from rhIL-2 (TF1 + IL-2Rβ), pSTAT5 titration | Binder |
| --- | --- |
| > 10000 fold | B5 |
| 95 fold | B6 |
| > 10000 fold | B7 |
